The whole screen tested about 310,000 compounds, of which about 2,200 (0.71%) showed an effect of 50% or more. The effect is printed as a negative number. The list shows a part of the results.

The results in this text go back to publication PMC4336329 (PLoS ONE, 2015).

Sequence of human ether-à-go-go-related gene (hERG) potassium channel (Q12809 whole entry, looked up): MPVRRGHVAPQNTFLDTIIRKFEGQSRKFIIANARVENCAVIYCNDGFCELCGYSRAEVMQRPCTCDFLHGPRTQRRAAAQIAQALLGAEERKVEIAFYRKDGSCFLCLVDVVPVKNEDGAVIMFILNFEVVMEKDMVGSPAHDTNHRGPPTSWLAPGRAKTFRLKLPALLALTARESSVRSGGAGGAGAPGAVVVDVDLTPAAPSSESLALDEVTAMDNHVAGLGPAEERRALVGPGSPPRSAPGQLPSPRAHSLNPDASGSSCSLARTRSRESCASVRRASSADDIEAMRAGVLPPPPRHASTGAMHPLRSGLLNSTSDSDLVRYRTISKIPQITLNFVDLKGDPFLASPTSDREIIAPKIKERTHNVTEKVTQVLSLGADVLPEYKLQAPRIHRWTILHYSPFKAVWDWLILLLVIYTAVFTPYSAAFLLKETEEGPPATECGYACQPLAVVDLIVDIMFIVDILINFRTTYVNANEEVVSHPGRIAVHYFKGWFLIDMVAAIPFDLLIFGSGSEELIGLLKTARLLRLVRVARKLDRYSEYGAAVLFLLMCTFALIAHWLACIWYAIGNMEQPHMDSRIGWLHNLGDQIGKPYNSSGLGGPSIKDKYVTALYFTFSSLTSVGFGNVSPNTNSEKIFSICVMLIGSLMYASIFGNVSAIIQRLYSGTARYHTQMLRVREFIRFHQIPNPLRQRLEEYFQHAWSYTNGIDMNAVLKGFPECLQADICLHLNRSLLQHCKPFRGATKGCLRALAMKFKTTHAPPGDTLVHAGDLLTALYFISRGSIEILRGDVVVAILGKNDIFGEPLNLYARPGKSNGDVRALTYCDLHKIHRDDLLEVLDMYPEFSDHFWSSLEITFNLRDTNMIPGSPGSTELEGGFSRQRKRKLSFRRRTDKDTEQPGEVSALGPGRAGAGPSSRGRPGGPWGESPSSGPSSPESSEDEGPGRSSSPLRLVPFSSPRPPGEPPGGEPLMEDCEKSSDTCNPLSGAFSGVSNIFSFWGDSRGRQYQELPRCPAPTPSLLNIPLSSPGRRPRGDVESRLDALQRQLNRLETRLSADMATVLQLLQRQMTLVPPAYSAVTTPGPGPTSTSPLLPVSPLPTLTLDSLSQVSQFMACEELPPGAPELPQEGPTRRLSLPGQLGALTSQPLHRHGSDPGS

The experiment has as its target human ether-à-go-go-related gene (hERG) potassium channel (human, UniProt Q12809). The experiment can be described thus: primary screen, population patch clamp on CHO cells stably expressing hERG.
For the compound `COc1cc(NC(=O)C2CCN(c3cnccn3)CC2)cc(OC)c1`, the “hERG current change (%, negative = inhibition) at 1uM” value is reported as 0.451%.

As to `COc1cccc(-c2cc(=O)c3cc(NC(=O)c4ccc(Cl)cc4)ccc3[nH]2)c1`, the “hERG current change (%, negative = inhibition) at 1uM” value came out at 16.8%.

`COc1ccc(-c2noc(N(C)CC(=O)Nc3cccc(C(F)(F)F)c3)n2)cc1`: the “hERG current change (%, negative = inhibition) at 1uM” value turned out to be 12.5%.

As to `COc1ccc(N2C(=O)C3CCCN3C2=S)cc1` (stereo not shown), the “hERG current change (%, negative = inhibition) at 1uM” value stood at 19.9%.

`COc1ccccc1OCC(=O)Nc1ccc2c(c1)OCO2`: the “hERG current change (%, negative = inhibition) at 1uM” value is 3.08%.

In the case of `Cc1cc(NCCc2ccc(Cl)cc2)n2ncnc2n1`, the “hERG current change (%, negative = inhibition) at 1uM” value is on record as -17.2%.

With `CCCOc1ccc(N2C(=O)CC(SC(=NCC)NCC)C2=O)cc1` (stereo not shown), the “hERG current change (%, negative = inhibition) at 1uM” value was 10.1%.

As for `NC(=O)c1cnn2c(-c3cccc(C(F)(F)F)c3)ccnc12`, the “hERG current change (%, negative = inhibition) at 1uM” value is 6.39%.

Regarding `Cc1c(N(C)CS(=O)(=O)O)c(=O)n(-c2ccccc2)n1C.[Na]`, the “hERG current change (%, negative = inhibition) at 1uM” value is listed as 15.8%.

As to `O=C(CN1CCN(c2ccccn2)CC1)Nc1cccc(S(=O)(=O)N2CCOCC2)c1`, the “hERG current change (%, negative = inhibition) at 1uM” value stood at 2.34%.

Consider `CCC(C)N1CCN(C(=O)Cc2ccccc2)CC1.O=C(O)C(=O)O` (stereo not shown), for which the “hERG current change (%, negative = inhibition) at 1uM” value came to 7.51%.

Turning to `O=C(/C=C/c1ccccc1)NCCS(=O)(=O)N1CCN(c2ccc(F)cc2)CC1`, the “hERG current change (%, negative = inhibition) at 1uM” value is -1.58%.

On to `Oc1ccc2ccccc2c1C=NC1CCCCC1`, for which the “hERG current change (%, negative = inhibition) at 1uM” value was found to be 7.74%.

For `CCC(Sc1nc(N)c(NC(=O)c2ccco2)c(=O)[nH]1)C(=O)O` (stereo not shown), the “hERG current change (%, negative = inhibition) at 1uM” value turned out to be 13.1%.

Take `Cc1c(C(=O)N(Cc2ccccc2)Cc2cccnc2)cnn1-c1ccc(F)cc1`: the “hERG current change (%, negative = inhibition) at 1uM” value is -4.77%.

`Cc1ccc(NC(=O)C(C)c2cccc(C(=O)c3ccccc3)c2)cc1` (stereo not shown): the “hERG current change (%, negative = inhibition) at 1uM” value is reported as -0.108%.

Take `CN1CCN(CCCCOc2ccc(F)cc2)CC1`: the “hERG current change (%, negative = inhibition) at 1uM” value turned out to be 5.88%.

For `Cc1ccccc1OCCn1cc(C(=O)C(=O)N2CCOCC2)c2ccccc21`, the “hERG current change (%, negative = inhibition) at 1uM” value worked out at 6.91%.

Take `CC(OC(=O)CN1C(=O)NC2(CCCC2)C1=O)C(=O)Nc1cccc(Cl)c1Cl` (stereo not shown): the “hERG current change (%, negative = inhibition) at 1uM” value is 3.71%.

Turning to `CSc1nnnn1-c1c(C)cc(C)cc1C`, the “hERG current change (%, negative = inhibition) at 1uM” value worked out at 12.2%.

`COCc1nnc(NC(=O)CC(c2ccccc2)c2ccccc2)s1`: the “hERG current change (%, negative = inhibition) at 1uM” value amounted to 11.1%.

Take `Cc1cc(C)cc(C(=O)NC2CC(C)(C)NC(C)(C)C2)c1`: the “hERG current change (%, negative = inhibition) at 1uM” value was found to be 16%.

Take `COc1ccc(NC(=O)Cn2cnc3ccccc3c2=O)cc1OC`: the “hERG current change (%, negative = inhibition) at 1uM” value worked out at 11.7%.

On to `CS(=O)(=O)N1N=C(c2ccc(Br)cc2)CC1c1ccc2c(c1)OCO2` (stereo not shown), for which the “hERG current change (%, negative = inhibition) at 1uM” value is listed as 2.96%.

Consider `O=S(=O)(CCN1CCOCC1)c1ccc(Oc2ccc(S(=O)(=O)CCN3CCOCC3)cc2)cc1`, for which the “hERG current change (%, negative = inhibition) at 1uM” value was 12.2%.

Regarding `COc1cc(C2/C(=C(\O)c3ccc4c(c3)OCCO4)C(=O)C(=O)N2CCN2CCOCC2)cc(OC)c1OC` (stereo not shown), the “hERG current change (%, negative = inhibition) at 1uM” value was found to be 16.5%.

Turning to `CCc1cc2c3c([nH]c2cc1S(=O)(=O)NCCCOC)CC(C)(C)CC3=O`, the “hERG current change (%, negative = inhibition) at 1uM” value worked out at 11.9%.

In the case of `COc1ccccc1NC(=O)Nc1nc(C(C)(C)C)cs1`, the “hERG current change (%, negative = inhibition) at 1uM” value was 15%.

With `O=C(/C=C/c1ccccc1[N+](=O)[O-])Nc1cccnc1`, the “hERG current change (%, negative = inhibition) at 1uM” value is -1.85%.

In the case of `O=C(OCC(=O)N1CCN(S(=O)(=O)c2ccc(Cl)cc2)CC1)c1cc(Br)ccc1O`, the “hERG current change (%, negative = inhibition) at 1uM” value is on record as 12.4%.

Take `Cc1coc2c(C)c3oc(=O)c(CCC(=O)N4C[C@H]5C[C@@H](C4)c4cccc(=O)n4C5)c(C)c3cc12`: the “hERG current change (%, negative = inhibition) at 1uM” value is reported as -10.7%.

On to `OCCSc1c(F)c(SCCO)c(SCCO)c(F)c1SCCO`, for which the “hERG current change (%, negative = inhibition) at 1uM” value is recorded as 6.7%.

On to `O=C(NCCCn1ncc2ccccc21)c1cc(COc2c(F)cccc2F)on1`, for which the “hERG current change (%, negative = inhibition) at 1uM” value is given as 6.17%.

As to `COc1cc2nc(C3CCC3)n(NC(=O)C(OC(C)=O)c3ccccc3)c(=O)c2cc1OC` (stereo not shown), the “hERG current change (%, negative = inhibition) at 1uM” value is 17.3%.

As to `O=C(O)c1ccc(NS(=O)(=O)c2cc(Cl)ccc2Cl)cc1`, the “hERG current change (%, negative = inhibition) at 1uM” value is -0.322%.

For the compound `COc1ccc(CCNC(=O)CN(C2CCCCC2)S(C)(=O)=O)cc1`, the “hERG current change (%, negative = inhibition) at 1uM” value is listed as 4.21%.

Consider `COc1cccc(-n2nnc3c(=O)n(Cc4ccc(F)cc4)cnc32)c1`, for which the “hERG current change (%, negative = inhibition) at 1uM” value was 2.19%.

In the case of `CCCCC(=O)N1C/C=C\C(c2ccc(OC)cc2)N(Cc2ccc(F)cc2)C(=O)C1` (stereo not shown), the “hERG current change (%, negative = inhibition) at 1uM” value is recorded as 5.48%.

In the case of `CCCc1c(C(=O)NNc2cccc(Cl)c2)cnn1-c1ccccc1`, the “hERG current change (%, negative = inhibition) at 1uM” value worked out at 9.12%.

Consider `O=C1S/C(=C\c2ccc(N3CCOCC3)o2)C(=O)N1Cc1ccc(F)cc1`, for which the “hERG current change (%, negative = inhibition) at 1uM” value was 0.642%.

Regarding `CCCCN(C)C(=O)CC(NS(=O)(=O)c1ccc(NC(C)=O)cc1)C(C)C` (stereo not shown), the “hERG current change (%, negative = inhibition) at 1uM” value was 4.1%.

Take `CCC(=O)c1cc2c(C)cc(=O)oc2c(C)c1OC(=O)C(C)C`: the “hERG current change (%, negative = inhibition) at 1uM” value is given as 13.3%.

`O=C(N/N=C/c1ccc([N+](=O)[O-])o1)c1ccc2c(c1)OCO2`: the “hERG current change (%, negative = inhibition) at 1uM” value was determined as 6.92%.
